Laboratory results published in publication PMC12903445.
Results are given in words; binding and its absence hold for the method and conditions named. Some entries that bind do so weakly or less than the wild type. Sequences can lack the tags named with a protein.

Tests used:
Test in all cases: two-hybrid; co-transformation of pGBKT7 (BD bait) and pGADT7 (AD prey) into S. cerevisiae Y2H Gold; growth on selective triple dropout (–LTH) medium, 30°C
[1] = target: CENH3 as yeast two-hybrid fusion (AD prey and BD bait) (A. thaliana) (UniProt Q8RVQ9)
[2] = target: T1, αKNL2 (full-length) as yeast two-hybrid bait (A. thaliana) (UniProt F4KCE9)
T1 sequence: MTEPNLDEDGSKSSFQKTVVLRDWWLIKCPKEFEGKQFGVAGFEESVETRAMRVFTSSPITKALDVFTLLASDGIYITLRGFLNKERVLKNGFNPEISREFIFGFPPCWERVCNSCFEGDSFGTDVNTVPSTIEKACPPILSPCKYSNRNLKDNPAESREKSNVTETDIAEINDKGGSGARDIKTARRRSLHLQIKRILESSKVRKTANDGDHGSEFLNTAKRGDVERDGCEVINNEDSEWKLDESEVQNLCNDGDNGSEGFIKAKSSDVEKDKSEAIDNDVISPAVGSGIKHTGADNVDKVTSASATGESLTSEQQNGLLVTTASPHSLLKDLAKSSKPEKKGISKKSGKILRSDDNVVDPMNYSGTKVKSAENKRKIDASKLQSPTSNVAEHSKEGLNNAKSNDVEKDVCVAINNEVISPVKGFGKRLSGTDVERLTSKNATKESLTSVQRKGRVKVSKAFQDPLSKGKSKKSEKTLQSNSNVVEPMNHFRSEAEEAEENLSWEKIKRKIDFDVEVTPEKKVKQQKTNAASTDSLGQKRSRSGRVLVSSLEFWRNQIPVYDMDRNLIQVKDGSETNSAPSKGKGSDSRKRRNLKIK

[3] = target: T2, αKNL2-N (aa 1–363) as yeast two-hybrid bait (A. thaliana) (UniProt F4KCE9)
T2 sequence: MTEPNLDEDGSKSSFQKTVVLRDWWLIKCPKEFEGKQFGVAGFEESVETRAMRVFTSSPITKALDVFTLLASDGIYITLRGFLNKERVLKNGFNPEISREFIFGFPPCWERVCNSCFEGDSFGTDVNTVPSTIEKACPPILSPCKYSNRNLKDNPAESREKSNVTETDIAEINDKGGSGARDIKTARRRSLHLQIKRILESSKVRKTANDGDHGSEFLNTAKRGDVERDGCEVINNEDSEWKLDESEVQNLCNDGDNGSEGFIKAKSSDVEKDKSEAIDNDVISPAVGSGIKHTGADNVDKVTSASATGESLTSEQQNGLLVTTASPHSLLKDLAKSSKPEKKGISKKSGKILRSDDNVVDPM

B1: CENH3 as yeast two-hybrid fusion (AD prey and BD bait) (protein, UniProt Q8RVQ9 1-178)
chain: MARTKHRVTRSQPRNQTDAAGASSSQAAGPTTTPTRRGGEGGDNTQQTNPTTSPATGTRRGAKRSRQAMPRGSQKKSYRYRPGTVALKEIRHFQKQTNLLIPAASFIREVRSITHMLAPPQINRWTAEALVALQEAAEDYLVGLFSDSMLCAIHARRVTLMRKDFELARRLGGKGRPW
**Q.** What does the source list for B1?
**A.** binding [1]: binds; binding [2]: no binding; binding [3]: no binding
